From PubChem BioAssay AID1508624 (National Center for Advancing Translational Sciences (NCATS), 2021)
Out of some 48,000 compounds screened, about 120 (0.25%) were called active. Not shown: some 4% with an inconclusive outcome. The call rests on the fitted dose curve; in most records, active means well fitted activation curve with a large enough effect; inconclusive means small, poorly fitted or top-dose-only effect, or another doubt; inactive means no such curve, though single readings can be large or run the other way. The list shows a part of the results.

Experiment: Primary qHTS for Identification of Small Molecule Activators of Huntingtin-Antisense Promoter Activity; further: nearly all actives have a fitted effect of over 55% in size
Conditions: HEK293 HTT-AS promoter firefly luciferase reporter (activity 0% = vehicle and -100% = no light), 24 h; series mostly up to 57.5 µM; activity change, positive = activation: at the top concentration
Outline: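 HEK293 cells carrying firefly luciferase reporters were seeded at 2,500 per well in Opti-MEM and cultured for 24 h. They were then treated with compounds at up to 57.5 uM final for 24 h at 37 degrees C before Dual-Glo luminescence readout.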

Compound | activity change, positive = activation
COc1ccccc1NC(=O)c1cnc(SCC(=O)N2CCOCC2)n(C)c1=O | inactive: 16.5%
COc1ccc2c(c1)c1c(c(=O)n(Cc3ccccc3)c(=O)n1Cc1cccc(Cl)c1)n2C | inactive: -4.06%
Cc1cc(C)c2oc(-c3ccc(Cl)c(NC(=O)c4cccs4)c3)nc2c1 | inactive: -6.54%
CCn1cc(C(=O)NCCCOC)c(=O)c2cc(S(=O)(=O)N3CCc4ccccc4C3)ccc21 | inactive: -5.93%
CCOC(=O)C1CCCN(CC(=O)Nc2cc(C)c3c(=O)oc4ccccc4c3n2)C1 (stereo unspecified) | inactive: 9.78%
Cc1cc(C)cc(NC(=O)C2CCN(S(=O)(=O)c3cn(C)cn3)CC2)c1 | inactive: 5.69%
O=c1oc2ccc3ccccc3c2cc1-c1nnc(Nc2ccccc2F)s1 | inactive: -0.513%
Cc1ccc(-c2nc3ncccn3c2Nc2ccc3c(c2)OCCO3)cc1 | inactive: -1.05%
CCc1ccc(CNc2ccc3c(c2)ncn3C(C)(C)C)cc1 | inactive: 19%
O=C(CCS(=O)(=O)c1ccc(Br)cc1)Nc1ccc(F)cc1F | inactive: -13.6%
Cc1cccc(NS(=O)(=O)c2ccc3c(c2)CC(C)N3C(=O)C2CCC2)c1C (stereo unspecified) | inactive: -30.7%
COc1cccc2c1cc1c(=O)n(CC(=O)N3CCN(c4ccccc4)CC3)nc(C)n12 | inactive: -3.35%
CCOc1ccc(N2CC(c3nc4ccccc4n3CCOc3ccccc3OC)CC2=O)cc1 (stereo unspecified) | inactive: -27.1%
O=C1CC(c2nc(-c3ccccc3)no2)CN1c1ccccc1 (stereo unspecified) | inactive: 9.44%
COC(=O)c1nc(Cl)c(Cl)nc1N | inactive: -37.6%
CCc1nc2ccc(C(=O)NCc3cc(OC)ccc3OC)cc2nc1CC | inactive: -13.8%
CCOc1ccc(CCNC(=O)CS(=O)(=O)Cc2nc(-c3ccc(OC)cc3)oc2C)cc1 | inactive: -25%
COc1ccc(Cn2c(=O)n(Cc3ccco3)c(=O)c3oc4ccccc4c32)cc1 | inactive: -3.84%
Cc1cccc2sc(N(CCN(C)C)C(=O)c3ccc4c(c3)OCCO4)nc12 | inactive: -12.4%
COc1ccc(-c2nc(CSCC(=O)N3CCN(c4cc(Cl)ccc4C)CC3)c(C)o2)cc1 | inactive: -54.7%
CCN(CC)c1ccc(NC(=O)c2cnn(-c3ccccc3)c2-n2cccc2)c(C)c1 | inactive: -50.2%

Compound | activity change, positive = activation
Cc1ccc(Cn2c(C)c3cnn(CC(=O)NCc4ccccc4)c(=O)c3c2C)cc1 | inactive: -40.2%
CC(=O)N1CCc2cc(S(=O)(=O)CCC(=O)Nc3ccc(C)cc3Br)ccc21 | inactive: -19.8%
Cc1cccc(NC(=O)CSc2nc(-c3ccccc3)cc(=O)[nH]2)c1C | inactive: -1.27%
Cc1ccc(C(C)C)c(OCC(O)CN2CCN(c3ccccc3F)CC2)c1 (stereo unspecified) | inactive: -25.2%
Cc1ccc(NC(=O)CCC(=O)N2Cc3ccccc3Oc3ncccc32)c(C)c1 | inactive: -14%
CCOc1ccc(CCNC(=O)CN2C(=O)COc3ccc(S(=O)(=O)N4CCCC4)cc32)cc1 | inactive: -20.2%
CCn1c(=N)c(C(=O)NCc2ccccc2)cc2c(=O)n3cccc(C)c3nc21 | inactive: -4.24%
COc1ccc(-n2nnnc2C2CCN(S(=O)(=O)c3ccc(NC(C)=O)cc3)CC2)cc1 | inactive: -38.7%
Cc1cccc(-c2nc(C)c(CCNC(=O)C(=O)Nc3ccccc3C#N)s2)c1 | inactive: -12%
CC(C)c1ccc(C2NC(=O)c3n[nH]c(-c4cccs4)c32)cc1 (stereo unspecified) | inactive: -37%
COc1ccc(Cl)cc1S(=O)(=O)NCc1ccc2c(c1)CCN2C(=O)c1cccc(C)c1 | inactive: -37.1%
CCOC(=O)c1ccc(N2C(=O)c3n[nH]c(-c4ccco4)c3C2c2cccc(OC)c2)cc1 (stereo unspecified) | inactive: -55.5%
COC(=O)c1ccc2c(=O)n(CCCCCC(=O)NCCc3ccc(Cl)cc3)c(=O)[nH]c2c1 | inactive: 6.52%
Cc1oc(-c2ccc(C(=O)NCc3cccc(F)c3)cc2)nc1COc1ccccc1 | inactive: -11.3%
N#Cc1c(C(F)(F)F)cc(-c2ccc(F)cc2)nc1SCC(=O)Nc1ccccc1 | inactive: -16.8%
CCn1c(C(=O)N2CCC(C(=O)NCCc3ccc(C)cc3)CC2)cc2sccc21 | inactive: -30%
Cc1ccc(Cn2ccnc2SCC(=O)NCc2ccccc2Cl)cc1 | inactive: 4.56%
Cc1ccccc1NC(=O)CSc1nc2ccccc2c2nc(CCn3cncc3C)nn12 | inactive: -0.485%
Cc1ccc(CNC(=O)C(C)n2nc(C)n3c(cc4sccc43)c2=O)cc1 (stereo unspecified) | inactive: -1.81%
CCOC(=O)C1CCCN(C(=O)c2ccc3c(c2)sc2nc(-c4ccc(CC)cc4)cn23)C1 (stereo unspecified) | inactive: -49.3%
COc1ccccc1C(=O)Nc1cccc(C(=O)OCc2cc(=O)n3ccsc3n2)c1 | inactive: 0%

Compound | activity change, positive = activation
Cc1ccc(S(=O)(=O)N(CC(=O)Nc2ccc(Cl)cc2Cl)c2ccccc2C)cc1 | inactive: -12.3%
COc1ccc(CCNC(=O)Cc2c(C)c3cc4c(C(C)(C)C)coc4c(C)c3oc2=O)cc1 | inactive: -6.23%
COc1cc(-c2noc(-c3ccc(NCC4CCCO4)c([N+](=O)[O-])c3)n2)cc(OC)c1OC (stereo unspecified) | inactive: -15%
Cc1ccc(C)c(Nc2cc(C(=O)NC3CCCC3)c3ccccc3n2)c1 | inactive: -12%
COc1ccc(NC(=O)CC2C(=O)N(c3ccc(OC)cc3)C(=O)N2CCC2=CCCCC2)cc1 (stereo unspecified) | inactive: -12.1%
COc1cc(NC(=O)CSc2nc3ncccc3o2)cc(OC)c1 | inactive: -11.3%
Cl/C(=C\n1cncn1)c1ccc(Cl)cc1Cl | inactive: -8.23%
CN(C)C(=O)[C@H](O)[C@H](Cc1ccccc1)NC(=O)c1cc2cc(Cl)ccc2[nH]1 | inactive: -33.9%
COc1ccc(-c2nc(CS(=O)(=O)CC(=O)NCc3ccccc3Br)c(C)o2)cc1 | inactive: -6.78%
O=C(NCCCN1CCCCCC1)c1ccc2c(c1)sc1nc(-c3ccccc3)cn12 | inactive: 0.194%
Cc1nc2cc(-c3ccccc3)nn2c(C)c1CCC(=O)Nc1ccc(F)cc1F | inactive: -79.2%
CCC(C(=O)Nc1ccc(C)c(C)c1)n1c(=O)c(C(F)(F)F)nc2ccccc21 (stereo unspecified) | inactive: 0.516%
Cc1ccc(CNC(=O)CCCn2c(=O)c3ccccc3n(CC(=O)Nc3ccc(C)cc3)c2=O)cc1 | inactive: -6.2%
CCOC(=O)c1c(NC(=O)COc2ccc(Cl)cc2C)sc2c1CCCCC2 | inactive: -12%
Cc1ccc(CNC(=O)CS(=O)(=O)c2cccc3nsnc23)cc1 | inactive: -12%
COc1cccc(NC(=O)Cn2c(=O)n(CCC(=O)NCCc3ccc(Cl)cc3)c(=O)c3ccccc32)c1 | inactive: -7.97%
CCOc1cc(-c2ccc(OC(=O)c3ccccc3Cl)c(OC)c2)cc(=O)c2c(C)oc(C)c12 | inactive: -14.2%
Cc1cccc(C)c1NC(=O)c1ccc2c(c1)nnn2C1CCCC1 | inactive: -19.8%
COc1ccc(-c2nn3c(=O)cc(CN4CCN(C(=O)/C=C/c5ccccc5)CC4)nc3s2)cc1 | inactive: -1.74%
